Assay results taken from publication PMC12040169 (PLOS Biology, 2025).
The list shows a part of the results.

System: T1, C. trachomatis L2/434/Bu expressing GFP (CTL2-GFP)
T1 construct: L2/434/Bu GFP intracellular growth in HeLa cells
Design: species or system HeLa; C. trachomatis total inclusion area by high-content imaging, normalised to DMSO
Details: total inclusion area; 28.5 h, 10 µM; inhibitor
Summary of the method: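 After bulk GFP and resorufin fluorescence reads, cells were fixed, stained with Hoechst and imaged by high-content microscopy. Inclusion area and number (GFP) stood in for chlamydial growth, nuclei count (Hoechst) for host cell viability. MICs were derived as for the bulk readout.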

Going from `NC(=O)c1c(NC(=O)c2ccc3ncsc3c2)sc2c1CCCC2` [CBK287369] to `COc1ccc(S(=O)(=O)N2CCCC(C(=O)Nc3ccc(C(N)=O)cc3)C2)cc1C` (stereo not drawn) [CBK269163], the “% of control remaining” value falls from 103.606 to 94.5274.

Going from `Cc1ccc(/C=C/C(=O)O)cc1S(=O)(=O)N1CCCc2ccccc21` [CBK264425] to `Cc1ccc(C(=O)Nc2ccccc2)cc1S(=O)(=O)N1CCN(C)CC1` [CBK270076], the “% of control remaining” value falls from 114.553 to 67.3493.

First: COc1ccc(C(=O)N2CCC3(CCCN(C(=O)c4ccc5occc5c4)C3)C2)cc1OC (stereo not drawn) [CBK131665]
Second: COc1ccc([C@@]23CC[C@@H](NC(=O)Nc4cccc(SC)c4)C[C@@H]2N(C)CC3)cc1OC [CBK036459T]
The “% of control remaining” value of the first is lower: 96.4974 for the first, 98.3999 for the second.

Compared with `O=C(NCCn1nc(-c2cccs2)oc1=O)C1CCCC1` [CBK282345], `O=C(NCc1cccs1)NC1CCCc2c1cnn2CCO` (stereo not drawn) [CBK305658] is lower in “% of control remaining” value: 70.6738 for the first, 21.0664 for the second.

Going from `CCNC(=O)Nc1ccc(-c2ccc(S(C)(=O)=O)cc2)c2ccccc12` [CBK083728] to `CCNC(=O)Nc1ccc2ccc(-c3ccc(SC)cc3)nc2n1` [CBK070656], the “% of control remaining” value falls from 84.9887 to 44.9105.

Compared with `N#C/C(=C\c1cccn1-c1ccc(S(N)(=O)=O)cc1)c1nc2ccccc2[nH]1` [CBK266167], `NS(=O)(=O)c1ccc(CCNC(=O)/C=C/c2ccccc2Cl)cc1` [CBK264379] is higher in “% of control remaining” value: 83.011 for the first, 109.91 for the second.

Compared with `O=C(OCc1ccccc1)Sc1nnc(-c2ccc([N+](=O)[O-])cc2)o1` [CBK264504], `Cc1ccc(S(=O)(=O)NCC(Oc2ccc([N+](=O)[O-])cc2)c2ccccc2)cc1` (stereo not drawn) [CBK262208] is lower in “% of control remaining” value: 124.116 for the first, 96.2847 for the second.

First: CCCC/C=C/c1cnc2[nH]c(=O)n(C3CCOCC3)c2n1 [CBK064253]
Second: CCCC/C=C/c1cnc2[nH]c(=O)n([C@H](CO)C(C)C)c2n1 [CBK064970]
The “% of control remaining” value of the first is lower: 75.2467 for the first, 121.473 for the second.

Going from `CC(=O)c1ccc(-c2nccnc2N2CCCC2CO)s1` (stereo not drawn) [CBK037483] to `COc1ccc(CN2CCN(c3nccnc3NS(C)(=O)=O)CC2)cc1` [CBK084273], the “% of control remaining” value falls from 92.657 to 70.6879.

First: COc1ccc(NC(=O)CC(C(=O)O)N2CCCCC2)cc1 (stereo not drawn) [CBK267115]
Second: O=[N+]([O-])c1ccc(S(=O)(=O)CC(CN2CCCC2)N2CCCC2)cc1 (stereo not drawn) [CBK266991]
The “% of control remaining” value of the first is higher: 99.0361 for the first, 84.8417 for the second.

Compared with `Cn1c(C(=O)Nc2ccc(Cn3cncn3)cc2)cc2cc(F)ccc21` [CBK281584], `CC1CCc2nn(CCNC(=O)Cc3ccc(F)cc3)c(=O)cc2C1` (stereo not drawn) [CBK284485] is higher in “% of control remaining” value: 72.9614 for the first, 113.543 for the second.

Going from `COc1ccc(CNc2cnc3ccccc3c2)c(O)c1` [CBK293951] to `OCCOc1ccnc2ccccc12` [CBK113395], the “% of control remaining” value falls from 100.108 to 91.9641.

First: C/C(O)=C1/C(=O)N(c2nc3ccccc3s2)N=C1CC(=O)O [CBK265828]
Second: CC(C)[C@H](CO)n1c(=O)[nH]c2ncc(-c3cccc(/C=C/C(=O)O)c3)nc21 [CBK065051]
The “% of control remaining” value of the first is higher: 119.278 for the first, 87.1889 for the second.

First: CC(NC(=O)Cn1ccnc1-c1ccccc1)c1ccccn1 (stereo not drawn) [CBK281885]
Second: CN(C)CCN(C)C(=O)c1ccc(-c2ccccc2)nc1N(C)C [CBK106070]
The “% of control remaining” value of the first is higher: 100.09 for the first, 93.0672 for the second.

First: O=C1N=C2C=CC=CN2C(=O)C1Cc1ccccc1 (stereo not drawn) [CBK287874]
Second: O=S(=O)(c1ccc(Br)s1)N1CCC(Cc2ccccc2)CC1 [CBK043580]
The “% of control remaining” value of the first is lower: 81.3461 for the first, 120.223 for the second.

First: COc1ccc(Cl)cc1Nc1nc(N)nc(CC(=O)CSc2ccc(C)cc2)n1 [CBK265200]
Second: CC(=O)c1ccc(-c2nc(-c3ccc(Cl)cc3)cnc2N)cc1 [CBK064097]
The “% of control remaining” value of the first is higher: 83.9249 for the first, 77.9633 for the second.

Compared with `CCN1CCCC1CNC(=O)c1cc(Br)cnc1N1CCOCC1` (stereo not drawn) [CBK076213], `O=C(NCCCN1CCOCC1)c1ccncc1` [CBK264561F] is lower in “% of control remaining” value: 114.034 for the first, 111.768 for the second.

First: CC(Oc1ccc(C#N)cc1)C(=O)NCC(C)(C)N1CCOCC1 (stereo not drawn) [CBK304066]
Second: CNc1nc(C)c(C(=O)N2CCCC(COc3ccc(F)cc3)C2)s1 (stereo not drawn) [CBK307234]
The “% of control remaining” value of the first is lower: 36.8139 for the first, 90.49 for the second.

First: Cc1c(C(=O)N(C)C2CCNCC2)nnn1-c1ccc2ncccc2c1 [CBK306500C]
Second: Cn1c(N2CC[C@H](O)C2)nc2cc(C(=O)NCC3CC3)ccc21 [CBK307164]
The “% of control remaining” value of the first is lower: 79.5576 for the first, 92.0872 for the second.

Going from `Cc1cc(C)cc(N(C(C)C(=O)Nc2ccc(C(F)(F)F)cc2)S(C)(=O)=O)c1` (stereo not drawn) [CBK268834] to `Cc1c(C(=O)O)sc(S(=O)(=O)N2CCN(C(=O)c3ccc(C(C)(C)C)cc3)CC2)c1C(=O)O` [CBK297119], the “% of control remaining” value rises from 69.9206 to 95.7796.

First: Cn1cc(CN2CCC(CNc3ccccn3)C2)cn1 (stereo not drawn) [CBK304705]
Second: O=c1c2ccccc2nc2n1CCN(Cc1ccc(F)c(F)c1)CC2 [CBK284816]
The “% of control remaining” value of the first is lower: 39.3064 for the first, 108.47 for the second.

Going from `COCCn1c(CN2CCCC(C)C2)nc2c1c(=O)n(C)c(=O)n2C` (stereo not drawn) [CBK306063] to `CCCS(=O)(=O)NC1CCN(c2nc(C(F)(F)F)nc3[nH]cnc23)CC1` [CBK304587], the “% of control remaining” value falls from 79.6857 to 68.8363.

First: CCNC(=O)NC[C@@H]1C=C(C)[C@H](CC(=O)N2CCOCC2)C[C@H]1C(C)C [CBK289051]
Second: CC(C)c1nc(CC(=O)NCCS(=O)(=O)N2CCc3ccccc32)cs1 [CBK305630]
The “% of control remaining” value of the first is higher: 109.09 for the first, 69.5254 for the second.

Compared with `COCc1ccc(-c2nccnc2NS(C)(=O)=O)cc1` [CBK049631], `Cc1cc(NS(=O)(=O)c2cccc3nonc23)n(C)n1` [CBK067247] is lower in “% of control remaining” value: 114.929 for the first, 73.9431 for the second.

Going from `O=C(NCCn1cc[nH]c1=O)c1cnc(-c2ccc(Cl)cc2)c(-c2ccc(O)cc2)c1` [CBK036766] to `CC(NC(=O)/C=C\C(=O)O)c1ccc2c(c1)OCO2` (stereo not drawn) [CBK286996], the “% of control remaining” value rises from 92.0857 to 94.6012.

For `COc1cc(OC)c2c(c1)OCC1CON(C)C21` (stereo not drawn) [CBK011446], the “% of control remaining” value was 95.9069.
